Assay results published in the supplement of paper PMC11417369.
± gives the standard deviation of the averaged measurements. The list shows a part of the results.

tested on: PfAP2-I AP2 domain 3 (GST-tagged); test: gcPBM binding intensity (ln(normalized median fluorescence intensity)); higher = stronger DNA binding
Procedure, shortened: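 GST-tagged P. falciparum DNA-binding domains, expressed in E. coli (about 25 μg on average), were applied for 1 h to an Agilent 4 × 180k array of primer-extended double-stranded 36-bp intergenic genomic probes plus negative controls. The binding buffer was 1× PBS with 1% milk, 0.2 mg/ml BSA, 0.5% salmon testes DNA and 0.03% Triton X-100. Bound protein was detected with Alexa488 anti-GST antibody and scanned at 488 nm. Binding intensity is the highest Masliner-normalised natural-log median intensity across replicate spots of either probe orientation.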

Sequence	gcPBM binding intensity (ln)
GGTTGCTTCAGTGAATGTACATAGTGGTAAACAAGC [XGTACX_site166]	8.64 ± 0.76
TGGGAGCACAGACACACACACACACCCATATATATA [CACACA_site335]	8.54 ± 0.73
TACAAAATAAAAATAATTCTTTCAAAAAATAATAAA [XGTACX_negctrl_site368]	7.25 ± 0.39
GTATATAATATTAGTGCACACACAAAAATGTACTAA [CACACA_site8112]	11.4 ± 0.55
AGTTTAATATAAAATACACACTACTCTTATAAATAT [CACACA_site6803]	7.7 ± 0.51
GAAATAATAAATTAAAAATCGTTTATAACATTTAAC [CACACA_negctrl_site425]	7.17 ± 0.4
ATTTTCTTTCTATGCACACGCACGTATTTGCACCCA [CACACA_site3350]	11.5 ± 0.39
CTTTTTTTTTGATGTTGTACATATATATTATATAAT [XGTACX_site1321]	8.16 ± 0.42
TTTTTAATTTAAAAAAATAATATTTTATATTCCGAA [CACACA_negctrl_site108]	7.49 ± 0.27
AAATATTTATATATATGTACACATATAATATTTTTA [XGTACX_site2338]	7.62 ± 0.32
TATTTTTTATTTTTTTGTACATATTTGATAATTAAT [XGTACX_site316]	7.8 ± 0.52
GTAAGCATCAAAAAAGGTACAGAAATTATAAATAAA [XGTACX_site6708]	7.8 ± 0.52
GAAAATTTATTTTTGGTGCATGTATTTATTTATTTT	9.21 ± 0.042
ATTTCTAATATTTTTGCACACTAAACAATAAATTTC [CACACA_site3943]	9.41 ± 0.21
ATATATGTTATTATTTGTACACACACATATATATCC [XGTACX_site7657]	8.27 ± 0.68
TATATATATTCTTTAAAACACACGTAAAGAAGAATT [CACACA_site2718]	7.94 ± 0.62
AAAAAAAAAAGAAACACACACATATATATATATAAT [CACACA_site5052]	7.49 ± 0.55
CATTTATTTATATACACACACACAAAAAAAAAAAAA [CACACA_site7279]	8.19 ± 0.4
TGCTATATTATTATCGCACACCGTTGATTCTAAATA [CACACA_site1207]	9.29 ± 0.28
ATAAGTGTATAAAAATGTACGTGTATAAAAATATGT [XGTACX_site8235]	8.37 ± 0.67
ACTAACATATATTCAACACACATATACCTTCAACCC [CACACA_site3011]	7.94 ± 0.72
CCCATTTAATATTGAGTGCATTTAAATAAATGTATT	10.7 ± 0.56

Sequence	gcPBM binding intensity (ln)
TTTTACAAAGTATGATGTACAAGTATATATAAATAT [XGTACX_site2072]	7.76 ± 0.35
TATATATATATATACACACACACATATATATATATA [CACACA_site774]	9.32 ± 0.5
TGAAAAGGAAAATTTTGTACATATACATCAAGGATA [XGTACX_site656]	7.62 ± 0.57
TACATGAATAAACTTACACACACCCATGCATACATA [CACACA_site97]	8.03 ± 0.71
AAAAAAAAGAATTTACGTACTTATTATTTATATTTT [XGTACX_site5701]	7.49 ± 0.35
ACTTTTTATTTTTTACTATATATATATATATATATG [TGCATGCA_negctrl_site463]	8.31 ± 0.44
AAAATACACAACATATATATATATATATATATATAT [XGTACX_negctrl_site21]	9.27 ± 0.54
TTTTGTTTTAAAAGTACACACTTTTAATTAGATTTC [CACACA_site4788]	7.8 ± 0.37
TGATCAATGGATTTAACACACAAAAAAAAAAAAAAA [CACACA_site3845]	8.05 ± 0.65
TTATTTTCAAAATGTTGTACACACAAAAAAAAAAAA [XGTACX_site3151]	8.4 ± 0.42
TTTTTTTTTTTTTTTGCATGCAGGTTTTTACCCCTT [TGCATGCA_site381]	8.44 ± 0.69
ATTTATTTTTTACATTGTACATATTTATTCCTTTTA [XGTACX_site8028]	7.91 ± 0.59
TATAACATTTTTTTCAAAATAGCTTTAGAAATAAAG [CACACA_negctrl_site718]	7.37 ± 0.54
ATATGTGGAAATAGAGCACACATATATATAATATAT [CACACA_site8194]	9.225 ± 0.092
TATGTATATATATAAAGTACGCAAATTTATAATAAG [XGTACX_site8744]	7.96 ± 0.4
TTTTTTTTCTTCAAGCGTACTTATTTGTAGAAAAAA [XGTACX_site1728]	7.75 ± 0.49
TAAGGACTAATATTTGAACACACATATAATATATAC [CACACA_site9325]	7.56 ± 0.69
TATATATTTGTTCACACACACACAAAAAAAAAAAAA [CACACA_site2475]	8.08 ± 0.52
GTCATCAAGTATTAAGTGCATTAAAAATAAAATATA	11.3 ± 0.62
CATATATATATATATATATATATATTTATTTATTTA [TGCATGCA_negctrl_site165]	8.46 ± 0.42
TTAAAAGAAAATAACACACACAAAAAAAAAAAAAAA [CACACA_site2117]	7.98 ± 0.71
TAAATATTATAAATGATACACACTTAAAATACTCAC [CACACA_site2710]	7.58 ± 0.5

Sequence	gcPBM binding intensity (ln)
AACATAAGTAAGAATACATGCGGAAATTATATAGAA [TGCATGCA_site112]	8 ± 0.73
TATAAATTTAAAATGACACACACTAAAGTTATTTAA [CACACA_site6700]	7.39 ± 0.56
TCCCTTAAAATGATATGTACATAAAAATAAAAAAAA [XGTACX_site836]	7.92 ± 0.35
AAAACAATAATATACTGTACATATATATAATAACAT [XGTACX_site6188]	7.87 ± 0.54
CATACACATACACATACACACGCATAGAAACATACG [CACACA_site8666]	8.41 ± 0.68
AATTTTTCATCAAGTTGTACAATTATTTGTTTGTTT [XGTACX_site3113]	7.8 ± 0.59
AAATTCAGGTTATATTTTAATTTTTTTTTGTTTTTT [CACACA_negctrl_site924]	7.29 ± 0.69
CAATATTTTTTATAGGGTACAAAAGATAAAAAAAAA [XGTACX_site6298]	8.44 ± 0.71
CATATTTGGAAACACACACACATATTTATATATATA [CACACA_site3569]	8.59 ± 0.71
TATATTTTACTCTTCACACATATACTCAATTTATAT [CACACA_site5357]	7.96 ± 0.48
AAAAGAAAAAGAAAAACACACATAAATATAAATATA [CACACA_site1879]	7.37 ± 0.64
AAAATTTTCTTTTTATGTACACATAATTTTACCGGA [XGTACX_site5276]	8.01 ± 0.56
TTCTTTTCTTTTTTCTTTTTTTTTTTCTTTTCTTTT [GTGCAC_negctrl_site630]	7.68 ± 0.61
AGAAAAGGACATATATGTACTTATCAATATAGAAAC [XGTACX_site1042]	7.83 ± 0.6
AAAAAAAAAAAAAAAACATGCAAAATAATATATATA [TGCATGCA_site68]	8.42 ± 0.55
TCACATATGTTCCATTGTACTTGTAGTAATTTTTTC [XGTACX_site6473]	7.72 ± 0.6
GTAATATGTATCCATACACACATACATTTTATTTGC [CACACA_site4640]	7.98 ± 0.37
ATAAAATGAAATATATGTACGCATCACTTGTTGAAC [XGTACX_site4530]	7.87 ± 0.5
TGCTAATAATTATTTGTTTAGCAACAAAAAAAAAAA [CACACA_negctrl_site1541]	8.18 ± 0.98
TAATTAAAAAATAAAAAAAAAAAAAATTAAAACAAA [CACACA_negctrl_site500]	7.2 ± 0.58
TTCTTTTTAATTTATTTTTTCTTATAACAAGAAAAC [CACACA_negctrl_site201]	7.83 ± 0.49
GTACATACATAAAACACACACATATATATATATATA [CACACA_site1826]	9.32 ± 0.26

Sequence	gcPBM binding intensity (ln)
GCTATAATAAAATTTAAACACACGTAATATAATATA [CACACA_site2592]	7.75 ± 0.54
AAAATTTCATAAAGACGTACTATAAAAATAAAATTA [XGTACX_site4182]	7.79 ± 0.41
GAAAAAAAAAAAAATACACACAAATTGGTATATAAC [CACACA_site6315]	7.61 ± 0.55
TATAAAAAATATCCTTTTTTTATACATCAATATATA [TGCATGCA_negctrl_site291]	7.33 ± 0.42
CACTAATAGTGGATTACACACATATAGATGTATATA [CACACA_site7234]	8.23 ± 0.33
AAAAATTCTTGGCGCACACACTTTAAAAGTTAAAAA [CACACA_site6430]	8.56 ± 0.31
GTATATTTCTTTAAATGTACACATTTTTTTAAAGAG [XGTACX_site1225]	7.945 ± 0.064
AATTGTATAAATGGAATAATGACTATGATTATACAT [GTGCAC_negctrl_site188]	7.86 ± 0.69
ACAAAGACAATTTTGTTATATATAAAAAAAAAAAAT [CACACA_negctrl_site253]	7.59 ± 0.68
TATATAAAACCTTATTGTACTATTAGACTATGCTTA [XGTACX_site6026]	7.47 ± 0.47
CAAATATCTATTTAGTGTACTAATATATTCAATAAT [XGTACX_site2345]	7.93 ± 0.32
ATAGCATATATTTTTTGTACATATGTTATATATATA [XGTACX_site2184]	8.51 ± 0.099
TACAAATATATATGCACACACATATCTGTATATGTG [CACACA_site5663]	9.32 ± 0.13
ATTAATTTTCCATTCACACATATATATATATATATA [CACACA_site6065]	9.38 ± 0.22
ATGTAGATATATATCTGTACGTATATGTAAATATTA [XGTACX_site1516]	8 ± 0.44
AATTCTTTTTATATATTAAATATTATTAATAAGTCA [CACACA_negctrl_site1488]	7.46 ± 0.57
ACACATTATAACAAGGTGCAATTTTTATACACATGT [GTGCAC_site9866]	9.515 ± 0.021
TTTTAAAATATCAACACACTCATTATTTTCTATATT [CACACA_site4740]	7.7 ± 0.47
AAAATAAAAACAAAATCACACATTCCAGTTTTTTTT [CACACA_site5356]	7.5 ± 0.63
TCATTCTATCTGTTCACACATACACAAAAAAAAAAA [CACACA_site5141]	8.21 ± 0.38
AAGGTCATTTTATATTGTACATGAAATTGTTATGTA [XGTACX_site187]	7.61 ± 0.51
ATATACAGATAAATGTGTACTTAAATCTATTATATT [XGTACX_site2632]	7.58 ± 0.3
